# In PubChem BioAssay AID651820 (National Center for Advancing Translational Sciences (NCATS), 2012):
# Several values for one entry are separate records, joined by “and”; a condition that tells them apart may be missing. Identical values can stand only once. Screen size: about 340,000 compounds; about 12,000 (3.5%) were called active. Inconclusive results, whose numbers are uncertain, are shown with a selection of clear calls. The call rests on the fitted dose curve; in most records, active means well fitted inhibition curve with a large enough effect; inconclusive means small, poorly fitted or top-dose-only effect, or another doubt; inactive means no such curve, though single readings can be large or run the other way. Potencies beside an inconclusive call are fits to weak or partial responses and may not hold up.
# Test: qHTS Assay for Inhibitors of Hepatitis C Virus (HCV)
# Conditions: Huh7.5.1 HCVcc-Cre (HCVcc is cell-culture hepatitis C virus) infection, luciferase reporter, 44 h; activity change, negative = inhibition: at 41.8 µM (top of the series) unless noted
# Summary of the method: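 1,000 cells/well; 4 h culture; + compound; + HCVcc-Cre (~0.5 moi); 44 h; luciferase substrate, RT 15 min; read 15 sec.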
# On the % scale 0 is the no-effect control and ±100 the full control effect; potency means the concentration at half of the fitted maximal effect; tags describe the fitted curve by direction and shape.
SMILES,Potency,"activity change, negative = inhibition"
COc1ccc(C(=O)Nc2ccc(Cl)c(S(=O)(=O)Nc3ccccc3OC)c2)cc1,"inconclusive: 3.16 µM [inhibitor, full curve]",–
CSc1ccc(CNC(=O)Cc2ccc(NC(=O)C3=C(C)OCCS3)cc2)cc1,"inconclusive: 31.6 µM [inhibitor, single point]",–
CC1CCN(S(=O)(=O)c2nnc(NC(=O)c3ccccc3Br)s2)CC1,–,inactive: 4.42%
O=C1CN(C(=O)CCCc2c[nH]c3ccccc23)c2ccccc2N1,–,inactive: -26.5%
COc1c(-c2ccc(O)cc2)oc2cc(O)cc(O)c2c1=O,"inconclusive: 2 µM [inhibitor, partial curve]",–
CCN(CC(=O)NCCc1ccccc1)S(=O)(=O)c1ccc(Br)cc1,"inconclusive: 0.562 µM [inhibitor, full curve, poor fit]",–
Cc1cc(NC(=O)/C=C/c2cccc(Cl)c2)n(-c2nc3ccccc3[nH]2)n1,"inconclusive: 8.91 µM [inhibitor, partial curve]",–
COC(=O)CCC(=O)COc1ccc(OC)cc1C#N,–,inactive: 3.73%
COCc1cc(=O)[nH]c(/N=C(\N)Nc2cccc(Cl)c2)n1,"inconclusive: 12.6 µM [inhibitor, partial curve]",–
Cc1nc(C(=O)N2CCc3c([nH]c4ccccc34)C2c2ccccn2)cs1 (stereo not drawn),"inconclusive: 31.6 µM [inhibitor, single point]",–
COC(=O)c1ccc2[nH]c3c(c2c1)CC(C)CC3 (stereo not drawn),"inconclusive: 2.24 µM [inhibitor, full curve]",–
Cc1ccc(Nc2nc(NCCO)nc3c2cnn3C)cc1Cl,active: 12.6 µM,–
CC(C)C(NC(=O)c1c(F)cccc1F)C(=O)N1CCN(S(=O)(=O)/C=C/c2ccccc2)CC1 (stereo not drawn),"inconclusive: 31.6 µM [inhibitor, single point]",–
CN(CCc1ccccn1)C(=O)c1nn2c(C(F)(F)F)cc(-c3ccco3)nc2c1Cl,"inconclusive: 4.47 µM [inhibitor, full curve]",–
Cc1cc(=O)oc2c1c(C)nn2-c1ccc(Br)cc1,"inconclusive: 3.16 µM [inhibitor, single point]",–
O=S(=O)(c1ccccc1F)N1CCN(CCc2ccccc2)CC1,"inconclusive: 31.6 µM [inhibitor, single point]",–
CCNC(=S)N(Cc1ccc(OC)cc1)C1CC(=O)N(c2ccc(OCC)cc2)C1=O (stereo not drawn),"inconclusive: 31.6 µM [inhibitor, single point]",–
Nc1nc(-c2ccccn2)nc(N)c1Cc1ccc(Cl)cc1Cl,active: 3.55 µM,–
CCOC(=O)c1ccccc1NC1c2ccccc2C(=O)N1C1CCN(C(=O)OCC)CC1 (stereo not drawn),"inactive and inconclusive: 22.4 µM [inhibitor, single point]",–
Cn1c(=O)n(C)c2cc(N3CCCC3)c(NC(=O)c3cccc(F)c3)cc21,"inconclusive: 7.08 µM [inhibitor, full curve]",–
O=C(N/N=C/c1ccc([N+](=O)[O-])s1)c1ccccc1,"inconclusive: 31.6 µM [inhibitor, single point]",–
COc1ccccc1-c1nc(C#N)c(N2CCN(Cc3ccccc3)CC2)o1,active: 11.2 µM,–

SMILES,Potency,"activity change, negative = inhibition"
CCc1nc2ccccc2n1CCC(C)C,"inconclusive: 22.4 µM [inhibitor, single point]",–
Cc1cc2nc(C3CCCN(C(=O)NCc4ccccc4)C3)[nH]c2cc1C (stereo not drawn),–,inactive: -22.6%
Cc1ccc(OCCN2CCN(C(=O)CCC(=O)Nc3nnc(C(C)C)s3)CC2)cc1,"inconclusive: 5.01 µM [inhibitor, partial curve]",–
CC(Oc1cccc(Cl)c1)C(=O)N(C)CC(=O)Nc1ccc(N2CCOCC2)cc1 (stereo not drawn),"inconclusive: 12.6 µM [inhibitor, partial curve]",–
O=C(c1ccccc1)C(O)(Cc1ccccc1)c1ccccc1 (stereo not drawn),"inconclusive: 11.2 µM [inhibitor, single point]",–
Cc1ncc(CO)c2c1Oc1nc(-c3ccccc3)nc(SCC(=O)N3CCOCC3)c1C2,"inconclusive: 11.2 µM [inhibitor, single point]",–
O=C(Cc1coc2cc(O)ccc12)N1CCN(S(=O)(=O)c2ccc(Br)cc2)CC1,active: 11.2 µM,–
CC(C)(C)[C@@H]1C=C(C(=O)N2CCN(Cc3ccccc3)CC2)O[C@H](OCc2ccc(CO)cc2)C1,–,inactive: 13.4%
COC(=O)c1[nH]c2cc(OC)ccc2c1NC(=O)c1c(F)cccc1F,active: 12.6 µM,–
CCCOC(=O)CCNc1n[nH]c(=O)[nH]c1=O,–,inactive: -15.4%
CCN(CC)S(=O)(=O)c1ccc(N(C)C)c(NC(=O)CSCc2c(C)noc2C)c1,"inconclusive: 31.6 µM [inhibitor, single point]",–
CC1(C)Cc2ccccc2C(COc2ccccc2)=N1,"inconclusive: 31.6 µM [inhibitor, single point]",–
N#Cc1ccc(Sc2nc3ccccc3[nH]2)cc1C#N,–,inactive: -4.97%
Cc1ccc(OCc2cc(C(=O)N3CCC(c4ccccc4Cl)C3)no2)cc1C (stereo not drawn),"inconclusive: 14.1 µM [inhibitor, single point]",–
CCOc1ccccc1NC(=O)C1CCN(c2ccc(S(=O)(=O)N3CCCC3)cc2)CC1,"inconclusive: 31.6 µM [inhibitor, single point]",–
COc1ccc(OCC(O)CNC(=O)c2ccc(OC)cc2)cc1 (stereo not drawn),"inconclusive: 5.62 µM [inhibitor, partial curve]",–
Cc1ccc(NC(=O)c2cc(=O)c3ccccc3o2)cc1S(=O)(=O)N1CCOCC1,"inconclusive: 12.6 µM [inhibitor, partial curve, poor fit]",–
Nc1nonc1-c1nc2ccccc2n1Cc1ccccc1,"inconclusive: 3.16 µM [inhibitor, full curve]",–
COc1cccc(N(CC(=O)NC2CCCC2)C(=O)Cn2nnc(-c3ccc(C)cc3)n2)c1,"inconclusive: 11.2 µM [inhibitor, partial curve]",–
O=C(CSc1nnc(Cn2nnc3ccccc32)o1)N(Cc1ccc(Cl)cc1)c1ccccc1,active: 6.31 µM,–
NNc1ccc2c(C(F)(F)F)cc(C(F)(F)F)nc2n1,"inconclusive: 12.6 µM [inhibitor, single point]",–
